Consider 31 compounds from the antibiotic and cytotoxicity screens of Wong et al. (2023).

This is one part of the list.

In this test the test system is HSkMC (human skeletal muscle cells). The experiment in a line: cytotoxicity call (relative viability < 0.9). The conditions noted are these: 10 µM.
Take `CC(=O)NC(CCC(N)=O)C(=O)O` (stereo unspecified): the cytotoxicity call was “inactive”.
The value for `COc1ccc(S(=O)(=O)N2C[C@@H](O)COC[C@H]3O[C@@H](CC(=O)NCc4ccc(Cl)c(Cl)c4)CC[C@@H]32)cc1` was “inactive”; that for `C=CCN1C(=O)C[C@@H]2[C@@H]1CCN2c1cnccn1` was “inactive”; that for `C[C@@H]1CN([C@@H](C)CO)C(=O)Cc2cc(NC(=O)Nc3ccc(C(F)(F)F)cc3)ccc2O[C@@H]1CN(C)S(=O)(=O)c1ccc(Cl)cc1` was “active”.
As to `CC(C)NC(=O)N(C)C[C@H]1Oc2ccc(NS(=O)(=O)c3cn(C)cn3)cc2C(=O)N([C@H](C)CO)C[C@H]1C`, the cytotoxicity call is “inactive”.
As for `C[C@@H]1CN([C@H](C)CO)C(=O)Cc2cc(NC(=O)c3ccncc3)ccc2O[C@@H]1CN(C)S(=O)(=O)c1cccs1`, the entry is “inactive”.
The value for `CC(C)CCN1CCn2c(CO)nnc2C1` was “inactive”; that for `COc1cccc(NC(=O)C[C@H]2CC[C@@H]3[C@H](COc4ccc(NC(=O)C5CCOCC5)cc4C(=O)N3C)O2)c1` was “inactive”; that for `CC1=C(/C=C/C(C)=C/C=C/C(C)=C/C=C/C=C(C)/C=C/C=C(C)/C=C/C2=C(C)C(=O)C(O)CC2(C)C)C(C)(C)CC(O)C1=O` (stereo unspecified) was “inactive”.
On to `Cc1noc(C)c1S(=O)(=O)Nc1ccc2c(c1)CC(=O)N([C@@H](C)CO)C[C@H](C)[C@@H](CN(C)Cc1ccncc1)O2`, for which the cytotoxicity call was “inactive”.
As for `CC(C)NC(=O)Nc1ccc2c(c1)CC(=O)N([C@H](C)CO)C[C@H](C)[C@@H](CN(C)Cc1ccc(Oc3ccccc3)cc1)O2`, the cytotoxicity call was “inactive”.
As for `C/C=C/c1ccc2c(c1)O[C@@H](CN(C)S(=O)(=O)c1ccc(F)cc1)[C@@H](C)CN([C@@H](C)CO)S2(=O)=O`, the entry is “inactive”.
As for `COc1ccc(C#Cc2ccc3c(c2)[C@]2(C(=O)N3)[C@H](C(=O)N3CCN(c4ncccn4)CC3)[C@H]3C(=O)O[C@H](c4ccccc4)[C@H](c4ccccc4)N3[C@@H]2c2ccccc2OCCO)cc1`, the entry is “inactive”; as for `NCCCN.O=C(O)C(O)C(O)C(=O)O` (stereo unspecified), “inactive”.
The value for `C[C@@H]1CN([C@H](C)CO)C(=O)c2cccc(NC(=O)Nc3ccc(C(F)(F)F)cc3)c2O[C@H]1CN(C)Cc1ccncc1` was “inactive”; that for `C[C@@H]1CN([C@H](C)CO)C(=O)c2cc(NC(=O)Nc3ccc4c(c3)OCO4)ccc2O[C@@H](C)CCCCO[C@@H]1CN(C)Cc1ccc(C(=O)O)cc1` was “inactive”.
With `CN(C)CCCNC(=O)C[C@H]1CC[C@@H]2[C@@H](COc3ccc(NS(C)(=O)=O)cc3C(=O)N2C)O1`, the cytotoxicity call was “inactive”.
On to `C[C@H]1CN([C@@H](C)CO)C(=O)Cc2cc(NS(=O)(=O)c3cccs3)ccc2O[C@@H]1CN(C)S(=O)(=O)c1ccccc1`, for which the cytotoxicity call is “inactive”.
The value for `CN(C)C(=O)c1cccc(-c2cccc(-c3nc(C(=O)NC4CCCCC4)cc4c3[C@H](CCO)N([S@@](=O)C(C)(C)C)C4)c2)c1` was “inactive”.
As for `C[C@@H]1CCCCO[C@H](CN(C)C(=O)Nc2ccc(F)cc2)[C@@H](C)CN([C@H](C)CO)C(=O)c2cc(NS(=O)(=O)c3cccs3)ccc2O1`, the entry is “inactive”; as for `COc1ccc2c3c(n(c2c1)C)[C@@H](CO)N(C[C@]13CCN(CC1)C(=O)CN(C)C)C(=O)C1CCCCC1`, “inactive”.
The value for `O=C(C[C@H]1CC[C@H]2[C@@H](COC[C@H](O)CN2C(=O)c2cnccn2)O1)N1CCN(c2ccccc2)CC1` was “inactive”.
As for `C[C@H](CO)N1C[C@H](C)[C@H](CN(C)C(=O)c2ccncc2)Oc2ncc(C#CC3CCCCC3)cc2C1=O`, the cytotoxicity call is “inactive”.
The value for `Cc1noc(C)c1NC(=O)N(C)C[C@@H]1OCCCC[C@H](C)Oc2ccc(NC(=O)Cc3ccccc3)cc2C(=O)N([C@H](C)CO)C[C@H]1C` was “inactive”.
The value for `COc1cccc2c1C(=O)c1c(O)c3c(c(O)c1C2=O)CC(O)(C(C)=O)CC3OC1CC(N)C(O)C(C)O1.Cl` (stereo unspecified) was “inactive”; that for `O/N=C/c1ccccc1C(F)(F)F` was “inactive”; that for `Cn1c2c(c(=S)[nH]c1=O)CCC2` was “inactive”.
In the case of `O=C(C[C@H]1CC[C@H]2[C@@H](COC[C@H](O)CN2S(=O)(=O)c2ccccc2)O1)N[C@@H]1CCN(Cc2ccccc2)C1`, the cytotoxicity call is “inactive”.
With `C[C@H]1CN([C@@H](C)CO)C(=O)c2cc(NC(=O)C3CC3)ccc2O[C@@H]1CN(C)C(=O)Nc1ccc2c(c1)OCO2`, the cytotoxicity call was “inactive”.
The value for `C[C@@H]1CN([C@@H](C)CO)C(=O)c2cc(C#CC3(O)CCCC3)cnc2O[C@@H]1CN(C)C(=O)C1CCOCC1` was “inactive”; that for `Cc1ccc(S(=O)(=O)N(C)C[C@@H]2Oc3ncc(Br)cc3C(=O)N([C@H](C)CO)C[C@H]2C)cc1` was “inactive”.
